Hit rate of the full screen: of about 48,000 compounds, about 1,200 (2.5%) were called active. About 2% were inconclusive and are not listed.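 Rule for the calls: active = activation of at least 60% and not above a set upper limit (about 1 call in 100 departs from these limits); inconclusive = activation of 40% to 60%, or above that upper limit; inactive = activation under 40%.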 This is one part of the list.
target: Probable G-protein coupled receptor 32 (Homo sapiens) (UniProt O75388); experiment: qHTS for Agonists of Human Resolvin D1 Receptor DRV1; conditions: CHO-K1 GPR32 beta-arrestin PathHunter luminescence, 90 min; at 76.9 µM; active compounds read high; zero percent set by DMSO-only wells; note: 0% is about no effect
Outline: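 Readings come from a cell-based beta-arrestin complementation format: CHO-K1 GPR32 stable cells (2,500/well) treated 90 min with compounds, then beta-Gal substrate added for 1 h before chemiluminescence imaging.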

Chain of UniProt O75388 (O75388 whole entry, looked up): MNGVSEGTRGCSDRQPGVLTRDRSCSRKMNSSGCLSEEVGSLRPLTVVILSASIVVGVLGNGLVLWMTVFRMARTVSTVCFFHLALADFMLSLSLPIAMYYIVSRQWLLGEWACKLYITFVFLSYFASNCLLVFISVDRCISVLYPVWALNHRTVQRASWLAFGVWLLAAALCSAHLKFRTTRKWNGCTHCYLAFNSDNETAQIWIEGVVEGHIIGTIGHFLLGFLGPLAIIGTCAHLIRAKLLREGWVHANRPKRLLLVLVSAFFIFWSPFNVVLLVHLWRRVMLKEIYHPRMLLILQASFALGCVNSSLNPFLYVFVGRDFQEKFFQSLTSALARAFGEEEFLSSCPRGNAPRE

| SMILES | activation |
| --- | --- |
| Cc1ccc(S(=O)(=O)n2nc(C)c(S(=O)(=O)N3CCCCC3)c2C)cc1 | inactive: 3.88% |
| CCc1ccc(CN(Cc2ccco2)C(=O)c2ccc(C)cc2)cc1 | inactive: -15.4% |
| CCOc1ccc(NC(=O)CC2C(=O)N(c3cccc(C)c3)C(=O)N2CCC2=CCCCC2)cc1 (centres undefined) | inactive: -5.13% |
| CCOc1ccc(NC(=O)CCc2c(C)nc3c(c(C)nn3-c3ccccc3)c2C)cc1 | inactive: -13% |
| CSc1ccc(/C=C/c2nc3ccccc3n2S(=O)(=O)c2ccc(F)c(C)c2)cc1 | inactive: 23.4% |
| CC(=O)N(Cc1cccnc1)c1nc2cc(C)cc(C)c2s1 | inactive: -23.4% |
| O=C(Nc1ccccc1)N(Cc1cccs1)c1ccc(Cl)cc1 | inactive: -14.3% |
| CC(=O)Nc1ccccc1-c1nc2ccccc2n(C(C)C(=O)Nc2cccc(C)c2C)c1=O (centres undefined) | inactive: -26.5% |
| CCc1ccc(C(=O)c2cn(CC(=O)Nc3cccc(C)c3C)c3nc(C)ccc3c2=O)cc1 | inactive: 23% |
| COc1ccc(Cl)cc1NC(=O)CN1C(=O)CSc2ccc(S(=O)(=O)N3CCCC3)cc21 | inactive: -19% |
| COc1ccccc1C(=O)N(Cc1ccco1)Cc1ccccc1F | inactive: -24.7% |
| Cc1cc(NC(=O)c2ccco2)cc(-c2nc3cc(Cl)ccc3o2)c1O | inactive: -7.43% |
| CCCCN(CC)C(=O)C1CCC(CNS(=O)(=O)c2cccc3nsnc23)CC1 (centres undefined) | active: 67.6% |
| CCC(C(=O)N(C)Cc1ccccc1)n1nc(C)c2sc3ccccc3c2c1=O (centres undefined) | inactive: -28.9% |
| Cc1ccc(CNC(=O)c2cc(Sc3ccc(F)cc3F)nc3ccccc23)cc1 | inactive: -13.2% |
| Cc1cccc(NC(=O)CSc2nc(C)c(Cc3ccccc3)c(=O)[nH]2)c1C | inactive: -13.5% |
| COc1ccc(CCNC(=O)C2=C(C)C(=O)OC23CCCCC3)c(OC)c1 | inactive: -15% |
| COc1ccc(CNC(=O)CCc2c(C)nn(-c3ccc(N4CCOCC4)nn3)c2C)cc1 | inactive: 11% |
| CCOC(=O)c1ccc(CN(Cc2ccc(F)cc2)S(=O)(=O)c2cc(C(=O)Nc3ccccc3CC)ccc2F)cc1 | inactive: -16.8% |
| Cc1ccc2ccc3cc(C(=O)Nc4ccc(C)c(F)c4)nc3c2[nH]1 | active: 60.4% |
| CCOC(=O)N1CCN(S(=O)(=O)N2CCCC(C(=O)NCc3ccccc3OC)C2)CC1 (centres undefined) | inactive: -16% |
| CC(=O)N1CCCC1c1nc2ccccc2n1Cc1cc(C)ccc1C (centres undefined) | inactive: -19.1% |
| COc1ccc(NC(=O)C2CCCN(S(=O)(=O)c3ccc4[nH]c(=O)ccc4c3)C2)cc1OC (centres undefined) | inactive: -9.96% |
| CCn1c(=O)n(CC2CCC(C(=O)NC(C)C)CC2)c(=O)c2sccc21 (centres undefined) | inactive: 4.71% |
| COc1ccc2cc3c(N)nn(C(=O)c4ccc(F)cc4Cl)c3nc2c1 | inactive: 5.08% |
| COc1ccc(NC(=O)CSc2c(C(C)C)cnc3c2c(=O)n(C)c(=O)n3C)c(OC)c1 | inactive: -12.1% |
| Cc1cc(NC(=O)CN2CCC(O)CC2)nc2c1c(=O)oc1ccccc12 | inactive: 38.9% |

| SMILES | activation |
| --- | --- |
| COc1ccc(C(=O)NCC(c2ccc3c(c2)OCO3)N2CCN(C)CC2)cc1OC (centres undefined) | inactive: -1.59% |
| CCOC(=O)c1cc(CC)sc1NC(=O)COc1ccccc1C | inactive: -3.38% |
| CCN1CCN(c2ncnc3c2cnn3-c2ccc(F)cc2)CC1 | inactive: 3.76% |
| CCOC(=O)c1c(C)[nH]c(C)c1S(=O)(=O)N1CCC(C(=O)Nc2ccc(OC)c(OC)c2)CC1 | inactive: -3.48% |
| CCOc1ccc(-n2c(SCC(=O)c3ccccc3)nc3c([nH]c4ccccc43)c2=O)cc1 | inactive: 16.3% |
| COc1ccc(CC(=O)Nc2ccc(-c3nc4ccccc4s3)c(C)c2)cc1 | inactive: 27.8% |
| CC(C)c1nc2sc3c(N4CCCCC4)ncnc3c2c2c1CCCC2 | inactive: 6.86% |
| COc1ccc(NC(=O)c2ccc3oc(=O)c(S(=O)(=O)c4ccc(F)cc4)cc3c2)c(OC)c1 | inactive: -3.06% |
| COC(=O)c1ccc(CSc2nc3ccncc3n2Cc2ccc(F)cc2)cc1 | inactive: 6.9% |
| COc1ccc(C(=O)Oc2ccc(C3NC(=O)c4c(sc5c4CCN(C)C5)N3)cc2OC)cc1 (centres undefined) | inactive: -2.06% |
| Cc1ccc(Cl)cc1N1CCN(C(=O)c2cc(S(=O)(=O)N3CCCCC3)cn2C)CC1 | inactive: -4.43% |
| Cc1nc2nc(C)c(CCC(=O)NCc3cccc(Cl)c3)c(C)n2n1 | inactive: -3.45% |
| CCOc1ccccc1NC(=O)c1ccc(C(=O)Nc2ccccc2OCC)cc1 | inactive: 7.11% |
| O=C(Cn1c(=O)n(Cc2ccco2)c(=O)c2sc3ccccc3c21)Nc1ccccc1C(F)(F)F | inactive: 4.59% |
| CCOC(=O)/C=C(C)/C=C/C=C(C)/C=C/c1c(C)cc(OC)c(C)c1C | inactive: 30.2% |
| CC(=O)NCCNC(=O)c1ccc2c(=O)n(CCc3ccccc3)c(=O)[nH]c2c1 | inactive: -0.415% |
| COc1ccc(C2=C(C(C)=O)Sc3nnc(-c4ccccc4)n3N2C(C)=O)cc1 | inactive: -15.8% |
| Cc1ccc(-n2nc(C)c3c(C)c(CCC(=O)NCc4ccccc4Cl)c(C)nc32)cc1 | inactive: -16.3% |
| Fc1ccc(Cc2cn3cc(-c4ccc(F)cc4)nc3s2)cc1 | inactive: 15.2% |
| COc1cc(NC(=O)c2cc3cc4cc(OC)ccc4nc3o2)cc(OC)c1 | inactive: 46.7% |
| CCOc1cc(C2NC(=O)c3c(sc4c3CCN(C)C4)N2)ccc1OC(=O)c1ccc(F)cc1 (centres undefined) | inactive: -1.96% |
| CCCCNC(=O)NS(=O)(=O)c1ccc(N)cc1 | inactive: 11.2% |
| Cc1ccc(CCNC(=O)c2ccc(CSc3nc4ccncc4n3Cc3ccc(F)cc3)cc2)cc1 | inactive: -11.4% |
| COC(=O)c1sc2ccccc2c1S(=O)(=O)N1CCN(c2ccc(C(C)=O)cc2)CC1 | inactive: -22.8% |
| Cc1ccc(-n2nc(CO)c(C(=O)NC(C)c3ccccc3)n2)cc1C (centres undefined) | inactive: -8.21% |
| O=C(Nc1ccc(F)cc1F)c1cc(-c2ccc3c(c2)OCO3)on1 | inactive: -4.27% |
| COc1cc(C2CC(=O)N(CC(=O)Nc3ccccc3F)c3ccccc3S2)cc(OC)c1OC (centres undefined) | inactive: -13.9% |

Source: PubChem BioAssay AID1346428 (National Center for Advancing Translational Sciences (NCATS), 2018)
